The list shows a part of the results.

This passage reports binding signal results from PMC12820563, “FoxP3 forms a head-to-head dimer in vivo and stabilizes its multimerization on adjacent microsatellites”.

The assay addresses T1, MBP-FoxP1dN (Mus musculus, UniProt P58462 326-579).
T1 sequence: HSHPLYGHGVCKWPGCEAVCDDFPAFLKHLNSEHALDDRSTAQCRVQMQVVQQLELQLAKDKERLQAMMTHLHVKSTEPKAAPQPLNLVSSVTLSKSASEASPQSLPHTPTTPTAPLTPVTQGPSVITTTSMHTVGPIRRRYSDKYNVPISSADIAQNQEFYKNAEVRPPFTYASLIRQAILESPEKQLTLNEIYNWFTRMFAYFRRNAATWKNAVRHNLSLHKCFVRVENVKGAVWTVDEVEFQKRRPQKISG
Nature of the assay: PD-seq (MBP pull-down with sequencing); 20 mM Tris-HCl pH 7.5, 100 mM NaCl, 1.5 mM MgCl2, 0.4 uM protein, 0.1 uM dsDNA library, 30 min, room temperature, amylose pull-down; high values mean tight binding. To be noted: protein: recombinant; tags: His6-MBP; chain copies: 2; dsDNA, one strand shown. The procedure, abridged:
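Binding is reads-per-million enrichment of pull-down over input, with replicates pooled. It comes from 30 min room-temperature incubation in Tris pH 7.5 buffer with NaCl and MgCl2 of 0.4 µM His6-MBP-tagged, N-terminally truncated mouse FoxP3 or FoxP1 fragment from E. coli with 0.1 µM Klenow-filled degenerate double-stranded DNA library, followed by amylose resin capture, three washes and Illumina sequencing of the released DNA.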
With “GATGATTGTTCTCCCAGCTGATGAATTTCGCCTGTCGAGTAAACAAATTTTCCTAATCTTTCTGTTCAAGCGCCATCTAC”, the binding signal is 0.826 RPM ratio (pull-down/input).
As for “GATGATTGTTCTCCCAGCTGATGAATTAGTTTCGTCGAGTAAACAAATTTTCCTAATCTTTCTGTTCAAGCGCCATCTAC”, the binding signal was 0.978 RPM ratio (pull-down/input).
For “GATGATTGTTCTCCCAGCTGATGAATTGATAATGTCGAGTAAACAAATTTTCCTAATCTTTCTGTTCAAGCGCCATCTAC” the value was 1.19 RPM ratio (pull-down/input); for “GATGATTGTTCTCCCAGCTGATGAATTCAATCCCTCGAGTAAACAAATTTTCCTAATCTTTCTGTTCAAGCGCCATCTAC”, 0.823 RPM ratio (pull-down/input); for “GATGATTGTTCTCCCAGCTGATGAATTCTTATGATCGAGTAAACAAATTTTCCTAATCTTTCTGTTCAAGCGCCATCTAC”, 0.993 RPM ratio (pull-down/input).
The same measure for “GATGATTGTTCTCCCAGCTGATGAATTTATATAGTCGAGTAAACAAATTTTCCTAATCTTTCTGTTCAAGCGCCATCTAC”: 1.13 RPM ratio (pull-down/input); for “GATGATTGTTCTCCCAGCTGATGAATTGGCAGCATCGAGTAAACAAATTTTCCTAATCTTTCTGTTCAAGCGCCATCTAC”: 0.996 RPM ratio (pull-down/input).
As for “GATGATTGTTCTCCCAGCTGATGAATTTGTTACTTCGAGTAAACAAATTTTCCTAATCTTTCTGTTCAAGCGCCATCTAC”, the binding signal was 1.45 RPM ratio (pull-down/input).
The same measure for “GATGATTGTTCTCCCAGCTGATGAATTTGAGCACTCGAGTAAACAAATTTTCCTAATCTTTCTGTTCAAGCGCCATCTAC”: 0.862 RPM ratio (pull-down/input); for “GATGATTGTTCTCCCAGCTGATGAATTCCGCCGGTCGAGTAAACAAATTTTCCTAATCTTTCTGTTCAAGCGCCATCTAC”: 0.758 RPM ratio (pull-down/input); for “GATGATTGTTCTCCCAGCTGATGAATTCGGACCTTCGAGTAAACAAATTTTCCTAATCTTTCTGTTCAAGCGCCATCTAC”: 0.794 RPM ratio (pull-down/input).
For “GATGATTGTTCTCCCAGCTGATGAATTACTTGTCTCGAGTAAACAAATTTTCCTAATCTTTCTGTTCAAGCGCCATCTAC” the value was 1.11 RPM ratio (pull-down/input); for “GATGATTGTTCTCCCAGCTGATGAATTCGTATGGTCGAGTAAACAAATTTTCCTAATCTTTCTGTTCAAGCGCCATCTAC”, 0.913 RPM ratio (pull-down/input); for “GATGATTGTTCTCCCAGCTGATGAATTGCGGAACTCGAGTAAACAAATTTTCCTAATCTTTCTGTTCAAGCGCCATCTAC”, 0.98 RPM ratio (pull-down/input).
The same measure for “GATGATTGTTCTCCCAGCTGATGAATTCTCAGCTTCGAGTAAACAAATTTTCCTAATCTTTCTGTTCAAGCGCCATCTAC”: 0.794 RPM ratio (pull-down/input); for “GATGATTGTTCTCCCAGCTGATGAATTCCCTGGATCGAGTAAACAAATTTTCCTAATCTTTCTGTTCAAGCGCCATCTAC”: 0.811 RPM ratio (pull-down/input); for “GATGATTGTTCTCCCAGCTGATGAATTCCCCCTTTCGAGTAAACAAATTTTCCTAATCTTTCTGTTCAAGCGCCATCTAC”: 0.861 RPM ratio (pull-down/input).
Take “GATGATTGTTCTCCCAGCTGATGAATTGAGCGCCTCGAGTAAACAAATTTTCCTAATCTTTCTGTTCAAGCGCCATCTAC”: the binding signal is 0.896 RPM ratio (pull-down/input).
